# Measurements reported in PubChem BioAssay AID624417 (National Center for Advancing Translational Sciences (NCATS), 2012).
# Values joined by “and” are separate entries in the source; they are usually repeats but may differ in a detail not shown here. Equal entries are not always repeated. Screen size: about 410,000 compounds; about 6,400 (1.6%) were called active. This list was built around the results that the source calls inconclusive (neither active nor inactive); the mix of calls is not that of the screen. The call rests on the fitted dose curve; in most records, active means well fitted inhibition curve with a large enough effect; inconclusive means small, poorly fitted or top-dose-only effect; inactive means no such curve, though single readings can be large or run the other way. Potencies beside an inconclusive call are fits to weak or partial responses and may not hold up.
# Biological target: Glucagon-like peptide 1 receptor (Homo sapiens) (UniProt P43220)
# Sequence of UniProt P43220 (P43220 whole entry, looked up): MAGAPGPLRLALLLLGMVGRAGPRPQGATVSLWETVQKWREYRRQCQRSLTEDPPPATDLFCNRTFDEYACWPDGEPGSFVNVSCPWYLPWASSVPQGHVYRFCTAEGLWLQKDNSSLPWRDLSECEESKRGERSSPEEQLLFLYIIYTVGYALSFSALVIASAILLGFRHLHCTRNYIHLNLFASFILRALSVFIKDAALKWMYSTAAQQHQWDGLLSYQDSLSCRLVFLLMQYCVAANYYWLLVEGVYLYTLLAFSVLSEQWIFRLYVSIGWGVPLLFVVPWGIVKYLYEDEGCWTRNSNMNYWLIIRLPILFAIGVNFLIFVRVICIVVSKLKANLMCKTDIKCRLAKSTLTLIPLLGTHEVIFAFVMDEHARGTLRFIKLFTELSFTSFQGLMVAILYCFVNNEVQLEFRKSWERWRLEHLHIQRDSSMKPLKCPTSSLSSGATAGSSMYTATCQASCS
# Experiment: qHTS of GLP-1 Receptor Inverse Agonists (Inhibition Mode); further: nearly all actives have a fitted effect of over 55% in size
# Conditions: HEK293 GLP-1R CRE-luciferase, luminescence, 24 h, GLP-1R form is constitutively active; activity change, negative = inhibition: at 38.3 µM (top of the series) unless noted
# Outline: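 Seeding at 200 cells/uL, 12 h culture, 24 hr compound treatment, then luciferase reagent and a luminescence read; cells are HEK293 stably expressing a constitutively active GLP-1R plus cAMP-responsive luciferase.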
# On the % scale 0 is the no-effect control and ±100 the full control effect; potency means the concentration at half of the fitted maximal effect; tags describe the fitted curve by direction and shape.
Compound,Potency,"activity change, negative = inhibition"
CCN1CCN(CC(=O)Nc2cc(S(=O)(=O)N(CC)c3ccccc3)ccc2Cl)CC1,active: 10 µM,
Cc1ccc(-c2c(C(=O)N/N=C/c3ccc(C)o3)nnn2-c2nonc2N)cc1,"inconclusive: 25.1 µM [inhibitor, single point]",
O=C(CCc1ccccc1)NCC1(c2ccccc2)CCCC1,"inconclusive: 10 µM [inhibitor, partial curve, poor fit]",
Nc1nonc1-n1nnc(C(=O)N/N=C\c2ccncc2)c1CN1CCCCC1,"inconclusive: 11.2 µM [inhibitor, partial curve, poor fit]",
COc1cc(/C=C2\C(=O)NN(c3ccccc3)C2=O)cc([N+](=O)[O-])c1O,"inconclusive: 2 µM [inhibitor, full curve, poor fit]",
COc1ccc(-c2coc3c(C(=O)NCc4cccs4)cccc23)c(C)c1,"inconclusive: 10 µM [inhibitor, partial curve, poor fit]",
O=C(/C=C/c1ccc(OC(F)F)cc1)OCC(=O)N1CCN(C(=O)c2ccco2)CC1,inactive,
COC(=O)c1ccccc1NC(=O)Cn1ncc2c(C)n(Cc3ccc(F)cc3)c(C)c2c1=O,"inconclusive: 3.16 µM [inhibitor, single point]",
Cc1onc(-c2ccccc2)c1C(=O)NCC(=O)Nc1cc(Cl)ccc1Cl,"inconclusive: 28.2 µM [inhibitor, single point]",
CCC1=Nc2cc(C(=O)NCCCOC(C)C)ccc2Sc2ccc(C)cc21,"inconclusive: 1.78 µM [inhibitor, full curve]",
Cc1cc2oc(C(=O)N(Cc3ccc(N(C)C)cc3)CC3CCCO3)c(C)c2cc1C (configuration not stated),"inconclusive: 15.8 µM [inhibitor, single point] and inconclusive: 22.4 µM [inhibitor, partial curve, poor fit]",
COc1ccc(-c2noc(-c3cc(C(C)C)[nH]n3)n2)cc1,"inconclusive: 28.2 µM [inhibitor, single point]",
COc1ccc(C)cc1NC(=O)C(OC(=O)c1cnc(C)cn1)c1ccccc1 (configuration not stated),inactive,
Cc1sc(NC(=O)c2ccco2)c(CN2CCN(c3ccccn3)CC2)c1C,"inconclusive: 28.2 µM [inhibitor, single point]",
Cc1ccc(C(=O)NC2CCS(=O)(=O)C2)cc1S(=O)(=O)N1CCCCCC1 (configuration not stated),,inactive: 3.8% [at 7.66 µM]
COc1cc(C(O)c2nc(/C=C/c3ccccc3)cs2)ccc1F (configuration not stated),"inconclusive: 11.2 µM [inhibitor, single point]",
CN1C2C=C(N(CCc3c[nH]c4ccccc34)C(=O)c3ccc(Cl)cc3)CC1CC2 (configuration not stated),"inconclusive: 7.08 µM [inhibitor, partial curve, poor fit]",
CCOc1cc(/C=N/O)ccc1OCc1ccc(F)cc1,"inconclusive: 10 µM [inhibitor, partial curve]",
Cc1ccc2oc(C(=O)N3CCN(Cc4ncccc4C)CC3)c(C)c2c1,"inconclusive: 7.94 µM [inhibitor, partial curve, poor fit]",
COc1ccccc1N(CC(=O)Nc1cc(C)on1)S(=O)(=O)c1ccc(Cl)cc1,"inconclusive: 22.4 µM [inhibitor, single point]",
Cc1cccc(NCc2nc(-c3ccccc3)no2)c1,"inconclusive: 10 µM [inhibitor, single point]",

Compound,Potency,"activity change, negative = inhibition"
CC1=C(C(=O)N2CCOCC2)CC(CC(=O)NCC2CCCCC2)C(=O)N1Cc1ccc(C(C)(C)C)cc1 (configuration not stated),"inconclusive: 10 µM [inhibitor, partial curve]",
CC(=O)c1cccc(OCc2cc(C(=O)NC3CCN(Cc4ccccc4)CC3)no2)c1,"inconclusive: 22.4 µM [inhibitor, single point]",
COc1cc(/C=N/Nc2ncc(C(F)(F)F)cc2Cl)cc(OC)c1OC,"inconclusive: 22.4 µM [inhibitor, single point]",
COc1ccc(Br)c(Cn2c(C)c(C(=O)NCc3ccc4c(c3)OCCO4)sc2=O)c1,"inconclusive: 15.8 µM [inhibitor, single point]",
CCOC(=O)CSc1nc2cc3c(cc2c(=O)n1CCCCCC(=O)NCc1ccc2c(c1)OCO2)OCO3,inactive,
Cc1[nH]c2ccccc2c1CN1CCC(CO)(Cc2ccccc2)CC1,"inconclusive: 11.2 µM [inhibitor, single point]",
O=C1CC(c2ccco2)CC(O)=C1C=Nc1ccc(Br)cc1 (configuration not stated),,inconclusive: -33.1% [inhibitor]
CCc1noc(C)c1C(=O)Nc1nc2c(C)cccc2s1,"inconclusive: 8.91 µM [inhibitor, single point]",
Cn1c2ccccc2c2c(C(=O)NCC3CCCO3)cn(C3CCCC3)c(=O)c21 (configuration not stated),inactive,
COc1ccc(CN2CCN(c3ncnc4sc5c(c34)CCCC5)CC2)cc1F,inactive,
O=C(CC1(CC2=NS(=O)(=O)c3ccccc3N2)CCCC1)NCCc1ccccc1,"inconclusive: 3.55 µM [inhibitor, partial curve, poor fit]",
O=C(NCc1cccc(C(F)(F)F)c1)C1CC(c2ccccc2C(F)(F)F)=NO1 (configuration not stated),"inconclusive: 7.08 µM [inhibitor, partial curve, poor fit]",
Cc1ccc(NC(=O)N2CCc3c(sc4c3CCCC4)C2c2ccccc2)cc1F (configuration not stated),"inconclusive: 10 µM [inhibitor, partial curve, poor fit]",
CCN(CC)CCn1c2c(c(SCC(=O)Nc3ccc(C(C)C)cc3)nc1=O)CCC2,"inconclusive: 10 µM [inhibitor, partial curve]",
CCOC(=O)C1(Cc2ccccc2C)CCCN(C(=O)c2ccc(CSC)o2)C1 (configuration not stated),"inconclusive: 11.2 µM [inhibitor, partial curve, poor fit]",
CCn1c(CSc2nc3ccccc3s2)nnc1SCC(=O)c1ccc(O)c(O)c1,"inconclusive: 7.94 µM [inhibitor, partial curve, poor fit]",
CN(c1ccccc1)S(=O)(=O)c1cccc(NC(=O)COc2ccccc2)c1,"inconclusive: 20 µM [inhibitor, single point]",
COc1cc(Cc2cc(OC)c(O)c(OC)c2)cc(OC)c1O,"inconclusive: 28.2 µM [inhibitor, single point]",
O=C(Cn1ncc2c3ccccc3n(Cc3cccc(Cl)c3)c2c1=O)N1CCCCC1,"inconclusive: 5.62 µM [inhibitor, full curve, poor fit]",
COC(=O)[C@@]1(Sc2ccc(C)cc2)CC(=O)N(c2ccc3c(ccn3C)c2)[C@@H]1c1ccccc1,"inconclusive: 10 µM [inhibitor, single point]",
O=C(Nc1ccc(S(=O)(=O)N2CCCC2)cc1)N1c2ccccc2Sc2ccccc21,"inconclusive: 28.2 µM [inhibitor, single point]",

Compound,Potency,"activity change, negative = inhibition"
N#Cc1c(N)n(CCc2ccc(F)cc2)c2nc3ccccc3nc12,inactive,
CCOC(=O)C1CCN(C(=O)Cn2nc(CC)n3c(cc4occc43)c2=O)CC1,inactive,
Cc1cccc(-n2c(SCc3ccc([N+](=O)[O-])cc3)nnc2-c2c[nH]c3ccccc23)c1,active: 3.16 µM,
CCCCc1nn2c(C)c(-c3ccc(OCC)cc3)nc2s1,active: 10 µM,
Clc1ccc(Cc2noc(Cc3ccccc3)n2)cc1Cl,"inconclusive: 8.91 µM [inhibitor, single point]",
CC(=O)Oc1ccc(C(=O)NCCc2ccccc2)cc1,"inconclusive: 11.2 µM [inhibitor, partial curve, poor fit]",
COc1ccc(C2=NN(c3nc(-c4ccccc4)c(CC(=O)O)s3)C(c3ccco3)C2)cc1 (configuration not stated),inactive,
COc1ccc(CCN2CC(C(=O)NCCc3ccc(C(F)(F)F)cc3)CCC2=O)cc1 (configuration not stated),"inconclusive: 28.2 µM [inhibitor, single point]",
COC(=O)c1nn(-c2ccc(OC)cc2)c(=O)cc1Oc1ccccc1,inactive,
COc1ccc(C(=O)c2coc3ccc(O)c(CN4CCCC4)c23)cc1,"inconclusive: 2.24 µM [inhibitor, partial curve, poor fit]",
CN1CCOC(=O)/C1=N/Nc1cc(Cl)ccc1Cl,"inconclusive: 5.62 µM [inhibitor, full curve, poor fit]",
Cc1ccc(S(=O)(=O)N(C)c2ccc(C(=O)N3CCN(Cc4ccc5c(c4)OCO5)CC3)cc2)cc1,"inconclusive: 14.1 µM [inhibitor, partial curve, poor fit]",
CCCN1C(C(=O)c2ccccc2)=C(OC(=O)C(C)(C)C)c2ccccc2S1(=O)=O,"inconclusive: 11.2 µM [inhibitor, partial curve, poor fit]",
O=c1cc(CNc2cc(Cl)ccc2Cl)nc2sccn12,"inconclusive: 28.2 µM [inhibitor, single point]",
COc1ccccc1/C=N/Nc1cc(C)nc2ccc(C)cc12,"inconclusive: 31.6 µM [inhibitor, single point]",
O=C(CCNC(=O)c1ccc(Br)cc1)Nc1ccccc1N1CCCCC1,"inconclusive: 8.91 µM [inhibitor, partial curve, poor fit]",
O=C(C=Cc1cccnc1)c1ccccc1,"inconclusive: 28.2 µM [inhibitor, single point]",
COc1ccc(CCN(Cc2ccccn2)C(=S)Nc2cccc(C)c2)cc1OC,,inactive: -4.34% [at 7.66 µM]
CCOC(=O)c1c(C)nc2c(c1-c1ccccc1)C(=O)CC(C)(C)C2,"inconclusive: 14.1 µM [inhibitor, single point]",
CCN(CC)c1ccc(NC(=O)CN2CCN(c3nc(C)cc(C)n3)CC2)cc1,"inconclusive: 7.08 µM [inhibitor, partial curve, poor fit]",
